Assay results from publication PMC9352552.
Results are given in words; binding and its absence hold for the method and conditions named. Some entries that bind do so weakly or less than the wild type. Tags and fused reporters may be left off the sequences shown. Values belong to the binder of their own block, whether it stands above or below them.

How the values were obtained:
Assay in all cases: two-hybrid; yeast AH109; tails fused with the Gal4-binding domain, μ subunits with the Gal4-activation domain; growth on medium lacking histidine, leucine and tryptophan
[1] = molecular target: APP cytosolic tail Y653A/I656A (human) (UniProt P05067)
[2] = molecular target: APP cytosolic tail Y682A (human) (UniProt P05067)
[3] = molecular target: APP cytosolic tail Y653A (human) (UniProt P05067)
[4] = molecular target: APP cytosolic tail Y687A (human) (UniProt P05067)
[5] = molecular target: APP cytosolic tail I656A (human) (UniProt P05067)
[6] = molecular target: Human APP cytosolic tail (isoform 695) fused with the Gal4-binding domain (human) (UniProt P05067)

binding [1]: binds
binding [2]: no binding
binding [3]: binds
binding [4]: no binding
binding [5]: binds
binding [6]: binds
B1: C-terminal domain of human μ1B (residues 137-423) fused with the Gal4-activation domain (domain or fragment, UniProt Q9Y6Q5 137-423)
chain: QQSNKLETGKSRVPPTVTNAVSWRSEGIKYKKNEVFIDVIESVNLLVNANGSVLLSEIVGTIKLKVFLSGMPELRLGLNDRVLFELTGRSKNKSVELEDVKFHQCVRLSRFDNDRTISFIPPDGDFELMSYRLSTQVKPLIWIESVIEKFSHSRVEIMVKAKGQFKKQSVANGVEISVPVPSDADSPRFKTSVGSAKYVPERNVVIWSIKSFPGGKEYLMRAHFGLPSVEKEEVEGRPPIGVKFEIPYFTVSGIQVRYMKIIEKSGYQALPWVRYITQSGDYQLRTS

binding [6]: no binding
B2: Rat μ3A, full length, fused with the Gal4-activation domain (protein, UniProt P53676 1-418)
chain: MIHSLFLINCSGDIFLEKHWKSVVSQSVCDYFFEAQEKAADVENVPTVISTPHHYLISIYRDKLFFVSVIQTEVPPLFVIEFLHRVADTFQDYFGECSEAAIKDNVVIVYELLEEMLDNGFPLATESNILKELIKPPTILRSVVNSITGSSNVGDTLPTGQLSNIPWRRAGVKYTNNEAYFDVVEEIDAIIDKSGSTVFAEIQGVIDACIKLSGMPDLSLSFMNPRLLDDVSFHPCIRFKRWESERVLSFIPPDGNFRLISYRVSSQNLVAIPVYVKHNISFKENSSCGRFDITIGPKQNMGKTIEGITVTVHMPKVVLNMNLTPTQGSYTFDPVTKVLAWDVGKITPQKLPSLKGLVNLQSGAPKPEENPNLNIQFKIQQLAISGLKVNRLDMYGEKYKPFKGVKYITKAGKFQVRT
